The supplement of paper PMC9151546
Many values rest on one well or one pass, so single values are uncertain.

What was measured:
CHO-K1 [1] = experiment: hypodiploid nuclei frequency (% of nucleated events); higher = more hypodiploid events (aneugenic)
Description: (§1)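 Flow-cytometric in vitro micronucleus assay (Litron MicroFlow) in CHO-K1 cells in 96-well plates, 19 concentrations (4.5-200 µM, n=1 per concentration). Without S9, cells were exposed for 24 h and sampled at 48 h. With Aroclor 1254-induced rat liver S9, cells were exposed for 3-4 h and sampled at 27-28 h. Read-outs are %MN and %hypodiploid nuclei relative to nucleated events, and relative survival as the nuclei-to-bead ratio versus the 1% DMSO vehicle control (x100).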

CHO-K1 [2] = experiment: micronucleus frequency (% of nucleated events); higher = more micronuclei (genotoxic)
CHO-K1 [3] = experiment: relative survival (nuclei to bead ratio vs DMSO control) (% of vehicle control); higher = more surviving cells
Description: as §1
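For hypodiploid nuclei frequency (% of nucleated events) in this document: hypodiploid nuclei gated on a flow cytometer with 488 nm excitation after SYTOX Green staining, cultures at 37 °C, positive controls vinblastine without S9 and cyclophosphamide with S9.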
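For micronucleus frequency (% of nucleated events) in this document: cells lysed with nuclei stained by SYTOX Green, then micronucleus-gated events counted against nucleated events by flow cytometry with 488 nm excitation.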
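For relative survival (nuclei to bead ratio vs DMSO control) in this document: Lysed-cell nuclei stained with SYTOX Green and counted against counting beads by flow cytometry at 488 nm excitation, with vinblastine (no S9) and cyclophosphamide (plus S9) as positive controls.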

NC1CCCCC1 [Cyclohexylamine]
Conditions	hypodiploid nuclei frequency, CHO-K1 [1] [%]	micronucleus frequency, CHO-K1 [2] [%]	relative survival, CHO-K1 [3]
concentration: 4.55 (µM), S9 metabolic activation: with S9, exposure time: 3-4 hours	0.08	1.12	143
concentration: 4.55 (µM), S9 metabolic activation: without S9, exposure time: 24 hours	0.7	1.84	148
concentration: 5.69 (µM), S9 metabolic activation: with S9, exposure time: 3-4 hours	0.4	1.82	139
concentration: 5.69 (µM), S9 metabolic activation: without S9, exposure time: 24 hours	0.38	1.18	132
concentration: 7.11 (µM), S9 metabolic activation: with S9, exposure time: 3-4 hours	0.2	1.7	129
concentration: 7.11 (µM), S9 metabolic activation: without S9, exposure time: 24 hours	0.3	1.72	132
concentration: 8.88 (µM), S9 metabolic activation: with S9, exposure time: 3-4 hours	0.38	1.84	116
concentration: 8.88 (µM), S9 metabolic activation: without S9, exposure time: 24 hours	0.68	2.54	131
concentration: 11.1 (µM), S9 metabolic activation: with S9, exposure time: 3-4 hours	0.3	1.34	123
concentration: 11.1 (µM), S9 metabolic activation: without S9, exposure time: 24 hours	0.62	1.82	132
concentration: 13.9 (µM), S9 metabolic activation: with S9, exposure time: 3-4 hours	0.3	2.1	140
concentration: 13.9 (µM), S9 metabolic activation: without S9, exposure time: 24 hours	0.48	1.3	126
concentration: 17.4 (µM), S9 metabolic activation: with S9, exposure time: 3-4 hours	0.1	1.24	108
concentration: 17.4 (µM), S9 metabolic activation: without S9, exposure time: 24 hours	0.44	1.92	132
concentration: 21.7 (µM), S9 metabolic activation: with S9, exposure time: 3-4 hours	0.22	1.64	117
concentration: 21.7 (µM), S9 metabolic activation: without S9, exposure time: 24 hours	0.36	1.62	114
concentration: 27.1 (µM), S9 metabolic activation: with S9, exposure time: 3-4 hours	0.26	1.22	176
concentration: 27.1 (µM), S9 metabolic activation: without S9, exposure time: 24 hours	0.76	1.86	122
concentration: 33.9 (µM), S9 metabolic activation: with S9, exposure time: 3-4 hours	0.18	1.72	134
concentration: 33.9 (µM), S9 metabolic activation: without S9, exposure time: 24 hours	0.66	1.54	135
concentration: 42.4 (µM), S9 metabolic activation: with S9, exposure time: 3-4 hours	0.24	1.34	135
concentration: 42.4 (µM), S9 metabolic activation: without S9, exposure time: 24 hours	0.84	2.1	125
concentration: 53 (µM), S9 metabolic activation: with S9, exposure time: 3-4 hours	0.34	1.48	143
concentration: 53 (µM), S9 metabolic activation: without S9, exposure time: 24 hours	0.96	1.6	111
concentration: 66.2 (µM), S9 metabolic activation: with S9, exposure time: 3-4 hours	0.24	0.98	121
concentration: 66.2 (µM), S9 metabolic activation: without S9, exposure time: 24 hours	1.02	2.44	106
concentration: 82.7 (µM), S9 metabolic activation: with S9, exposure time: 3-4 hours	0.22	1.24	111
concentration: 82.7 (µM), S9 metabolic activation: without S9, exposure time: 24 hours	0.74	2.5	95.6
concentration: 103 (µM), S9 metabolic activation: with S9, exposure time: 3-4 hours	0.2	1.6	99.8
concentration: 103 (µM), S9 metabolic activation: without S9, exposure time: 24 hours	1.12	2.2	108
concentration: 129 (µM), S9 metabolic activation: with S9, exposure time: 3-4 hours	0.28	1.66	130
concentration: 129 (µM), S9 metabolic activation: without S9, exposure time: 24 hours	1.22	2.96	118
concentration: 162 (µM), S9 metabolic activation: with S9, exposure time: 3-4 hours	0.34	2.34	99.8
concentration: 162 (µM), S9 metabolic activation: without S9, exposure time: 24 hours	1.26	2.98	120
concentration: 202 (µM), S9 metabolic activation: with S9, exposure time: 3-4 hours	0.2	2.04	119
concentration: 202 (µM), S9 metabolic activation: without S9, exposure time: 24 hours	1.62	2.68	100

O=c1c(-c2ccc(O)cc2)coc2cc(O)ccc12 [Daidzein]
Conditions	hypodiploid nuclei frequency, CHO-K1 [1] [%]	micronucleus frequency, CHO-K1 [2] [%]	relative survival, CHO-K1 [3]
concentration: 4.5 (µM), S9 metabolic activation: with S9, exposure time: 3-4 hours	0.28	1.32	92
concentration: 4.5 (µM), S9 metabolic activation: without S9, exposure time: 24 hours	0.68	1.08	117
concentration: 5.63 (µM), S9 metabolic activation: with S9, exposure time: 3-4 hours	0.22	1.1	87.3
concentration: 5.63 (µM), S9 metabolic activation: without S9, exposure time: 24 hours	0.56	1.14	96.3
concentration: 7.04 (µM), S9 metabolic activation: with S9, exposure time: 3-4 hours	0.24	0.7	91.7
concentration: 7.04 (µM), S9 metabolic activation: without S9, exposure time: 24 hours	0.62	1.14	97.4
concentration: 8.8 (µM), S9 metabolic activation: with S9, exposure time: 3-4 hours	0.22	1.58	87.1
concentration: 8.8 (µM), S9 metabolic activation: without S9, exposure time: 24 hours	0.34	1.08	93.1
concentration: 11 (µM), S9 metabolic activation: with S9, exposure time: 3-4 hours	0.22	1.32	90.3
concentration: 11 (µM), S9 metabolic activation: without S9, exposure time: 24 hours	0.72	1.08	105
concentration: 13.7 (µM), S9 metabolic activation: with S9, exposure time: 3-4 hours	0.2	1.46	109
concentration: 13.7 (µM), S9 metabolic activation: without S9, exposure time: 24 hours	0.7	1.06	88.1
concentration: 17.2 (µM), S9 metabolic activation: with S9, exposure time: 3-4 hours	0.36	1.36	90
concentration: 17.2 (µM), S9 metabolic activation: without S9, exposure time: 24 hours	0.42	0.98	84.5
concentration: 21.5 (µM), S9 metabolic activation: with S9, exposure time: 3-4 hours	0.32	1.82	87.3
concentration: 21.5 (µM), S9 metabolic activation: without S9, exposure time: 24 hours	0.58	1.24	82.5
concentration: 26.8 (µM), S9 metabolic activation: with S9, exposure time: 3-4 hours	0.22	1.84	92
concentration: 26.8 (µM), S9 metabolic activation: without S9, exposure time: 24 hours	0.66	1.66	87.2
concentration: 33.6 (µM), S9 metabolic activation: with S9, exposure time: 3-4 hours	0.44	2.5	91
concentration: 33.6 (µM), S9 metabolic activation: without S9, exposure time: 24 hours	0.72	1.22	89.1
concentration: 41.9 (µM), S9 metabolic activation: with S9, exposure time: 3-4 hours	0.38	2.88	86.2
concentration: 41.9 (µM), S9 metabolic activation: without S9, exposure time: 24 hours	0.58	1.66	93.6
concentration: 52.4 (µM), S9 metabolic activation: with S9, exposure time: 3-4 hours	0.42	3.52	77.4
concentration: 52.4 (µM), S9 metabolic activation: without S9, exposure time: 24 hours	0.72	1.12	85
concentration: 65.5 (µM), S9 metabolic activation: with S9, exposure time: 3-4 hours	0.46	3.22	78.5
concentration: 65.5 (µM), S9 metabolic activation: without S9, exposure time: 24 hours	0.56	1.5	85
concentration: 81.9 (µM), S9 metabolic activation: with S9, exposure time: 3-4 hours	0.84	4.88	77.2
concentration: 81.9 (µM), S9 metabolic activation: without S9, exposure time: 24 hours	0.7	1.52	86.3
concentration: 102 (µM), S9 metabolic activation: with S9, exposure time: 3-4 hours	1.78	8.7	59.7
concentration: 102 (µM), S9 metabolic activation: without S9, exposure time: 24 hours	0.56	1.48	93.6
concentration: 128 (µM), S9 metabolic activation: with S9, exposure time: 3-4 hours	2.48	10.5	54
concentration: 128 (µM), S9 metabolic activation: without S9, exposure time: 24 hours	0.7	1.32	85.4
concentration: 160 (µM), S9 metabolic activation: with S9, exposure time: 3-4 hours	–	–	32.3
concentration: 160 (µM), S9 metabolic activation: without S9, exposure time: 24 hours	0.54	1.62	71.8
concentration: 200 (µM), S9 metabolic activation: with S9, exposure time: 3-4 hours	–	–	22.9
concentration: 200 (µM), S9 metabolic activation: without S9, exposure time: 24 hours	0.88	1.3	63.8

Nc1ccc(S(=O)(=O)c2ccc(N)cc2)cc1 [Dapsone]
Conditions	hypodiploid nuclei frequency, CHO-K1 [1] [%]	micronucleus frequency, CHO-K1 [2] [%]	relative survival, CHO-K1 [3]
concentration: 4.5 (µM), S9 metabolic activation: with S9, exposure time: 3-4 hours	0.2	1.6	88.5
concentration: 4.5 (µM), S9 metabolic activation: without S9, exposure time: 24 hours	0.48	1.82	71.5
concentration: 5.63 (µM), S9 metabolic activation: with S9, exposure time: 3-4 hours	0.22	1.58	91.1
concentration: 5.63 (µM), S9 metabolic activation: without S9, exposure time: 24 hours	0.46	1.92	83.7
concentration: 7.04 (µM), S9 metabolic activation: with S9, exposure time: 3-4 hours	0.26	1.8	93
concentration: 7.04 (µM), S9 metabolic activation: without S9, exposure time: 24 hours	0.44	1.18	89.5
concentration: 8.8 (µM), S9 metabolic activation: with S9, exposure time: 3-4 hours	0.32	1.52	92.6
concentration: 8.8 (µM), S9 metabolic activation: without S9, exposure time: 24 hours	0.52	1.86	91
concentration: 11 (µM), S9 metabolic activation: with S9, exposure time: 3-4 hours	0.18	1.6	105
concentration: 11 (µM), S9 metabolic activation: without S9, exposure time: 24 hours	1	1.96	75.2
concentration: 13.7 (µM), S9 metabolic activation: with S9, exposure time: 3-4 hours	0.34	1.82	100
concentration: 13.7 (µM), S9 metabolic activation: without S9, exposure time: 24 hours	0.76	1.1	86.2
concentration: 17.2 (µM), S9 metabolic activation: with S9, exposure time: 3-4 hours	0.34	1.98	115
concentration: 17.2 (µM), S9 metabolic activation: without S9, exposure time: 24 hours	0.88	1.68	93.2
concentration: 21.5 (µM), S9 metabolic activation: with S9, exposure time: 3-4 hours	0.3	1.58	90.3
concentration: 21.5 (µM), S9 metabolic activation: without S9, exposure time: 24 hours	0.78	1.7	65.4
concentration: 26.8 (µM), S9 metabolic activation: with S9, exposure time: 3-4 hours	0.28	2.22	118
concentration: 26.8 (µM), S9 metabolic activation: without S9, exposure time: 24 hours	0.46	1.12	88.2
concentration: 33.6 (µM), S9 metabolic activation: with S9, exposure time: 3-4 hours	0.18	1.22	115
concentration: 33.6 (µM), S9 metabolic activation: without S9, exposure time: 24 hours	0.52	1.4	90.2
concentration: 41.9 (µM), S9 metabolic activation: with S9, exposure time: 3-4 hours	0.14	2.74	98.7
concentration: 41.9 (µM), S9 metabolic activation: without S9, exposure time: 24 hours	0.8	1.46	85.9
concentration: 52.4 (µM), S9 metabolic activation: with S9, exposure time: 3-4 hours	0.2	1.82	95.9
concentration: 52.4 (µM), S9 metabolic activation: without S9, exposure time: 24 hours	0.96	1.92	79.9
concentration: 65.5 (µM), S9 metabolic activation: with S9, exposure time: 3-4 hours	0.32	1.64	99.9
concentration: 65.5 (µM), S9 metabolic activation: without S9, exposure time: 24 hours	0.88	1.74	84.6
concentration: 81.9 (µM), S9 metabolic activation: with S9, exposure time: 3-4 hours	0.16	1.16	101
concentration: 81.9 (µM), S9 metabolic activation: without S9, exposure time: 24 hours	1	1.9	94.3
concentration: 102 (µM), S9 metabolic activation: with S9, exposure time: 3-4 hours	0.16	1.62	132
concentration: 102 (µM), S9 metabolic activation: without S9, exposure time: 24 hours	1.02	1.74	76.2
concentration: 128 (µM), S9 metabolic activation: with S9, exposure time: 3-4 hours	0.34	1.72	107
concentration: 128 (µM), S9 metabolic activation: without S9, exposure time: 24 hours	1.18	1.8	88.2
concentration: 160 (µM), S9 metabolic activation: with S9, exposure time: 3-4 hours	0.42	1.78	108
concentration: 160 (µM), S9 metabolic activation: without S9, exposure time: 24 hours	0.96	1.42	71
concentration: 200 (µM), S9 metabolic activation: with S9, exposure time: 3-4 hours	0.28	1.18	103
concentration: 200 (µM), S9 metabolic activation: without S9, exposure time: 24 hours	1.22	1.7	74.7
